Binding data for seven molecules are collected here from publication PMC6753473.

No constants are given. Whether binding was seen depends on the method and setting. For part of these data: Binding seen in cells or lysates may run through a third protein. Some binding calls cover weakened binding; strength is not graded here. For part of these data: Where a sequence is shown, tags or fusion partners need not be part of it.

The target in experiment [1] is GFP-tagged CAF1 (UniProt Q9UIV1). As to the kind of experiment: co-IP; GFP-CAF1 or GFP-CAF1* expressed in HEK293T cells, immunoprecipitated with anti-GFP antibody; precipitates incubated on ice with 12 μM purified MBP or MBP-tagged CIR for 10 min, washed, western blot of endogenous CCR4–NOT subunits.
Experiment [2] concerns the target T1, GFP-PatL1 (full length) (human) (UniProt Q86TB9).
T1 sequence: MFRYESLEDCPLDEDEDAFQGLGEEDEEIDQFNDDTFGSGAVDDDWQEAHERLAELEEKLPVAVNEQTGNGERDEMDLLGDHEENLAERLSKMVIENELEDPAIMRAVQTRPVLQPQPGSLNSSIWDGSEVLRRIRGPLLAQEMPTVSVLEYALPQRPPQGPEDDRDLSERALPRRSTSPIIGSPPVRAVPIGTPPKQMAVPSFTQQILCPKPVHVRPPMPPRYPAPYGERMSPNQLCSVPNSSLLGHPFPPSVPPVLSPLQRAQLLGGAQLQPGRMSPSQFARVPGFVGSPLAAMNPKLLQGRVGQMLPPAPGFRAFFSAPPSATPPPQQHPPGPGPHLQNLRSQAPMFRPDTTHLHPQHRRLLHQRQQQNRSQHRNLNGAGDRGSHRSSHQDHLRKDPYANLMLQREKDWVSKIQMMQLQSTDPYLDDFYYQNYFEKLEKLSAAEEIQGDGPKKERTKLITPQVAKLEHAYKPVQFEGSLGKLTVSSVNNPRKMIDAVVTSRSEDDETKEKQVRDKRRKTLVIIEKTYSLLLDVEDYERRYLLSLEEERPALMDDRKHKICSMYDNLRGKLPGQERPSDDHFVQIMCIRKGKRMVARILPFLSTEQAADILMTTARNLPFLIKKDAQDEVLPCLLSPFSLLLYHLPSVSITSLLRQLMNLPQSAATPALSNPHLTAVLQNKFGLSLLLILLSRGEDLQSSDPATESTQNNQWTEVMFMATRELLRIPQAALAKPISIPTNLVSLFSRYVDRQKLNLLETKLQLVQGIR
As to the kind of experiment: co-IP; GFP-tagged bait expressed in HEK293T cells, immunoprecipitated with anti-GFP antibodies; endogenous partners detected by western blot; NET buffer (50 mM Tris/HCl pH 7.5, 150 mM NaCl, 1 mM EDTA, 0.1% Triton-X-100, 10% glycerol); RNase A added. (In general: A western blot detects proteins with antibodies after separation by electrophoresis.)

Experiment [3] concerns the target T2, GFP-PatL1 ΔC (lacks residues 517-770) (human) (UniProt Q86TB9).
T2 sequence: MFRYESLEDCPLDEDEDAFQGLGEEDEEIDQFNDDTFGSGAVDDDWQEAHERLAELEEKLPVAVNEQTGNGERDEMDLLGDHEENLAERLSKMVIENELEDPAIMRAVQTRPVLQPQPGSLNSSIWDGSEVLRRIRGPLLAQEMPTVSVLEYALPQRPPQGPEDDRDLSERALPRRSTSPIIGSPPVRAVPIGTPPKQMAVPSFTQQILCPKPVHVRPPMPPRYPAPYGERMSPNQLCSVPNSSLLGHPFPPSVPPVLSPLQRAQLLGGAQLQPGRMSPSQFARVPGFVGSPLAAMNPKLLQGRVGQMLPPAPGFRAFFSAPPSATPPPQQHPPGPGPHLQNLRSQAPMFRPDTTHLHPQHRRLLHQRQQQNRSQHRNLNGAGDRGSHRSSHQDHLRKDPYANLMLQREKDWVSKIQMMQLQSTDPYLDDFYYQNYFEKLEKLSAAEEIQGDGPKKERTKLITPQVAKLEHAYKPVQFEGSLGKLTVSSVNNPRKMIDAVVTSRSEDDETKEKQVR
The experiment is described as above.

For experiment [4], the target named is T3, MBP- and Strep-tagged recombinant human XRN1 CIR (human) (UniProt Q8IZH2).
T3 sequence: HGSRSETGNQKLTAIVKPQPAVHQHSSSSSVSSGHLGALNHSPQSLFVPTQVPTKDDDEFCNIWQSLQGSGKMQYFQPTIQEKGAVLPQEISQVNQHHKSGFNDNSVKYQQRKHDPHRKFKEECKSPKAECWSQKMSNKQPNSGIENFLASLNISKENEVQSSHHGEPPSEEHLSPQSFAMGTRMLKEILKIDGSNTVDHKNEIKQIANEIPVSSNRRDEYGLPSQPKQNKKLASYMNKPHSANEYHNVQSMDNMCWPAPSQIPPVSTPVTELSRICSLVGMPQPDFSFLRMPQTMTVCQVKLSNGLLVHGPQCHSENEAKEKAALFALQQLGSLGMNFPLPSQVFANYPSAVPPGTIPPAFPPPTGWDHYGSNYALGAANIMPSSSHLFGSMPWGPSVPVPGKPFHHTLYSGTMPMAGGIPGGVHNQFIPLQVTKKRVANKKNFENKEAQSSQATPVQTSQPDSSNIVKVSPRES
Briefly: pull-down; MBP/Strep-tagged bait (from cleared E. coli lysate, or 30 μg purified PNRC2) held on Strep-Tactin sepharose and washed; purified proteins added for 1 h at 4°C in 50 mM Tris/HCl pH 7.5, 150 mM NaCl; eluted with 2.5 mM biotin; SDS-PAGE, Coomassie; both purified.

Experiment [5] concerns the target GFP-tagged XRN1 (full length) (human) (UniProt Q8IZH2). Briefly: co-IP; GFP-tagged bait expressed in HEK293T cells, immunoprecipitated with anti-GFP antibodies; endogenous partners detected by western blot; NET buffer (50 mM Tris/HCl pH 7.5, 150 mM NaCl, 1 mM EDTA, 0.1% Triton-X-100, 10% glycerol); RNase A added.
Experiment [6] has the same target. Briefly: co-IP; GFP-tagged and HA-tagged proteins co-expressed in HEK293T cells, immunoprecipitated with anti-GFP antibodies, western blot; NET buffer; RNase A added.
Experiment [7] addresses T4, GFP-tagged XRN1 C-terminal interacting region (residues 1174-1649) (human) (UniProt Q8IZH2).
T4 sequence: T3 sequence
Described as above.

Consider “endogenous CCR4a (from UniProt Q9ULM6 1-557) (enzyme)”, for which the binding result in experiment [1] was “binds”.

In the case of “endogenous NOT1 (from UniProt A5YKK6 1-2376)”, the binding result in experiment [2] and in experiment [3] was “binds” each time.

Consider “endogenous NOT2 (from UniProt Q9NZN8 1-540)”, for which the binding entry in experiment [1] is recorded as “binds”. Turning to “endogenous NOT3 (from UniProt O75175 1-753)”, in experiment [1], the binding entry is recorded as “binds”.

B1: recombinant PatL1 C-terminal region (PatL1-C) (domain or fragment, UniProt Q86TB9 517-770)
chain: DKRRKTLVIIEKTYSLLLDVEDYERRYLLSLEEERPALMDDRKHKICSMYDNLRGKLPGQERPSDDHFVQIMCIRKGKRMVARILPFLSTEQAADILMTTARNLPFLIKKDAQDEVLPCLLSPFSLLLYHLPSVSITSLLRQLMNLPQSAATPALSNPHLTAVLQNKFGLSLLLILLSRGEDLQSSDPATESTQNNQWTEVMFMATRELLRIPQAALAKPISIPTNLVSLFSRYVDRQKLNLLETKLQLVQGIR
In the case of B1, the binding result in experiment [4] was “binds”.

B2: endogenous PAN2 (enzyme, UniProt Q504Q3 1-1202)
chain: MNFEGLDPGLAEYAPAMHSALDPVLDAHLNPSLLQNVELDPEGVALEALPVQESVHIMEGVYSELHSVVAEVGVPVSVSHFDLHEEMLWVGSHGGHATSFFGPALERYSSFQVNGSDDIRQIQSLENGILFLTKNNLKYMARGGLIIFDYLLDENEDMHSLLLTDSSTLLVGGLQNHIIEIDLNTVQETQKYAVETPGVTIMRQTNRFFFCGHTSGKVSLRDLRTFKVEHEFDAFSGSLSDFDVHGNLLAACGFSSRLTGLACDRFLKVYDLRMMRAITPLQVHVDPAFLRFIPTYTSRLAIISQSGQCQFCEPTGLANPADIFHVNPVGPLLMTFDVSASKQALAFGDSEGCVHLWTDSPEPSFNPYSRETEFALPCLVDSLPPLDWSQDLLPLSLIPVPLTTDTLLSDWPAANSAPAPRRAPPVDAEILRTMKKVGFIGYAPNPRTRLRNQIPYRLKESDSEFDSFSQVTESPVGREEEPHLHMVSKKYRKVTIKYSKLGLEDFDFKHYNKTLFAGLEPHIPNAYCNCMIQVLYFLEPVRCLIQNHLCQKEFCLACELGFLFHMLDLSRGDPCQGNNFLRAFRTIPEASALGLILADSDEASGKGNLARLIQRWNRFILTQLHQDMQELEIPQAYRGAGGSSFCSSGDSVIGQLFSCEMENCSLCRCGSETVRASSTLLFTLSYPDGSKSDKTGKNYDFAQVLKRSICLDQNTQAWCDTCEKYQPTIQTRNIRHLPDILVINCEVNSSKEADFWRMQAEVAFKMAVKKHGGEISKNKEFALADWKELGSPEGVLVCPSIEELKNVWLPFSIRMKMTKNKGLDVCNWTDGDEMQWGPARAEEEHGVYVYDLMATVVHILDSRTGGSLVAHIKVGETYHQRKEGVTHQQWYLFNDFLIEPIDKHEAVQFDMNWKVPAILYYVKRNLNSRYNLNIKNPIEASVLLAEASLARKQRKTHTTFIPLMLNEMPQIGDLVGLDAEFVTLNEEEAELRSDGTKSTIKPSQMSVARITCVRGQGPNEGIPFIDDYISTQEQVVDYLTQYSGIKPGDLDAKISSKHLTTLKSTYLKLRFLIDIGVKFVGHGLQKDFRVINLMVPKDQVLDTVYLFHMPRKRMISLRFLAWYFLDLKIQGETHDSIEDARTALQLYRKYLELSKNGTEPESFHKVLKGLYEKGRKMDWKVPEPEGQTSPKNAAVFSSVLAL
In the case of B2, the binding entry in experiment [5] is recorded as “no binding”.

B3: HA-tagged PatL1 (protein, UniProt Q86TB9 1-770)
chain: T1 sequence
Consider B3, for which the binding entry in experiment [6] and in experiment [7] was “binds” throughout.
